In ChEMBL document CHEMBL4888484, “Replenishing the malaria drug discovery pipeline: Screening and hit evaluation of the MMV Hit Generation Library 1 (HGL1) against asexual blood stage Plasmodium falciparum ,using a nano luciferase reporter read-out” (2022):
Hit rate of the full screen: of about 150,000 compounds, about 540 (0.36%) showed an effect of 50% or more. This is one part of the list.

Tested on: Plasmodium falciparum
Assay: Primary screen in NF54 nanoGlo assay, in single point, at 2uM, 72h; a lower Z score goes with more inhibition
Assay type: functional, Erythrocyte
Details: timepoint 72 hour

| Compound | % Inhibition | Z score |
| --- | --- | --- |
| Cc1ccn(CCCNS(=O)(=O)c2c(Cl)ccc3nsnc23)n1 | -10% | 1.47 |
| CCN(Cc1cncn1C)c1ccccc1C | 7% | -1.27 |
| COc1ccccc1CNc1nc(-c2c[nH]c3ccccc23)nc2c1CNC2 | 2% | -0.29 |
| NC(=O)C[C@H]1COCCN1C(=O)c1scc2c1OCCO2 | -8% | 1.13 |
| CNC(=O)CN(CCc1ccc(C(C)(C)C)cc1)CC(=O)NC | -12% | 1.25 |
| CCNC(=O)c1nsc(C(=O)N2CCN(c3ccccn3)CC2)c1N | -10% | 1.26 |
| COc1ccc(-c2nnc(NC(=O)[C@H](C)NC(=O)Nc3ccccc3F)s2)cc1 | -4% | 0.45 |
| Cc1cc(C)c(-c2cc(C(=O)NCCC(=O)N3CCN(C)CC3)no2)c(C)c1 | -8% | 1.28 |
| Cc1onc(NC(=O)NC[C@@H]2CCCC[C@H]2O)c1C | -21% | 4.14 |
| O=C(c1ncc(F)cc1F)N1CCC(Nc2nccs2)CC1 | -44% | 5.11 |
| O=C(NC[C@H]1CC12CC2)N1CCC=C(F)C1 | -3% | 0.65 |
| Cc1nn(C)c(C)c1-c1ccnc2cc(C(=O)Nc3sc4c(c3C#N)CC[C@H](C(C)(C)C)C4)nn12 | 0% | -0.05 |
| CN(Cc1cnc(NC[C@H]2CCCO2)nc1)Cc1cccc2cnccc12 | -7% | 0.99 |
| Cn1c(CNC(=O)N2CCC(C)(C)[C@@H](c3ccccc3)C2)n[nH]c1=O | 1% | -0.12 |
| CCOC(=O)c1nnn(-c2nc(N3CCCC3)nc(N(c3ccccc3)c3ccccc3)n2)c1C | -17% | 2.24 |
| Cc1c(CN[C@H]2CC(C)(C)OC2(C)C)cnn1C | 1% | -0.08 |
| Cn1c([C@H](Cc2ccccc2)NC(=O)c2ccccn2)nc2ccccc21 | -1% | 0.12 |
| COc1ccc(-c2nc(C)nc3c2CCC3)c(OC)c1 | -12% | 1.74 |
| CO[C@H]1C[C@@H](O)C12CCN(C(=O)c1cc(C3CC3)n[nH]1)CC2 | -1% | 0.13 |
| CCOc1cc(-n2cnnn2)c(OCC)cc1NC(=O)c1cn(-c2ccc(OC)cc2)nn1 | -2% | 0.18 |
| CC[C@H]1CCCCN1Cc1cccc2c1OCCO2 | 3% | -0.39 |

| Compound | % Inhibition | Z score |
| --- | --- | --- |
| Cn1cnc2c1CCN(C(=O)c1cn(C(C)(C)C)nn1)C21CCOCC1 | -5% | 0.86 |
| Cc1ccc2[nH]c(CCNC(=O)[C@@H]3CCCN3c3nnc(N4CCCC4=O)s3)nc2c1 | -4% | 0.82 |
| CCc1nn(C)cc1CN[C@H](C)C(=O)OC | -5% | 0.61 |
| CC(C(=O)N(C)C)S(=O)(=O)N1CC(O)C(C)(C)C1 (stereo not drawn) | -8% | 1.15 |
| C[C@H]1CCn2c(nc3cc(C(=O)NC4CCCCCCC4)ccc32)C1 | -8% | 1.33 |
| Cc1ccccc1Cn1cccc1CNS(=O)(=O)c1ccc(Cl)s1 | -3% | 0.25 |
| CC(Cc1ccccc1F)NC(=O)[C@H]1CCCCN1 (stereo partly drawn) | -11% | 1.07 |
| CN(C)C[C@@H]1COCCN(Cc2cccn2-c2ccc(Cl)cn2)C1 | -10% | 1.93 |
| CC(=O)N[C@H]1CCN(Cc2cn(C)nc2-c2ccc3c(c2)OCCO3)C1 | -1% | 0.25 |
| CCc1nccn1CCC(=O)N1CCC[C@@]2(CNC(=O)O2)C1 | -15% | 2.22 |
| O=C(O)[C@H](Cc1ccccc1)n1c[n+]([O-])c(-c2ccccc2)c1-c1ccccc1 | 3% | -0.62 |
| COCC(C)(C)CNC(=O)c1c[nH]c2nc(C)nn2c1=O | -37% | 3.22 |
| Cc1cccc(/N=C(\NCc2c(C)nn(C)c2C)NC(=O)c2ccccc2Cl)c1C | -4% | 0.64 |
| Cc1nc(-c2ncccn2)sc1C(=O)NCC1(c2ccc(F)cc2)CCOCC1 | 11% | -1.06 |
| COc1cc(Cn2cccc(C(=O)N(C)[C@@H](C)C3CC3)c2=O)ccn1 | -3% | 0.25 |
| O=C(NCC1CCCCC1)c1ccc(NS(=O)(=O)c2ccc(Br)cc2)cc1 | -2% | 0.4 |
| O=C(c1ccc(Cl)c(Cl)c1)C1CCN(C(=O)[C@H]2CCn3cncc3C2)CC1 | 34% | -1.08 |
| CCN(CC(C)(C)O)[C@@H](C(N)=O)c1ccccc1 | -6% | 0.62 |
| C[C@](C#N)(NC(=O)Cn1cnc(C#N)n1)C1CC1 | -11% | 1.57 |
| N#Cc1cccnc1N1CCC[C@H](c2[nH]ncc2-c2ccc(F)cc2)C1 | -2% | 0.43 |
| COCCOCCC(=O)NC1CCN(C(C(=O)OC(C)(C)C)c2ccccc2)C1=O (stereo not drawn) | -2% | 0.21 |

| Compound | % Inhibition | Z score |
| --- | --- | --- |
| COc1cnc(C(=O)N2CCOCC2)cc1O | -17% | 2.21 |
| CCN1CCN(C(=O)c2ccc(CN3C(=O)COc4ccc(C(=O)COc5ccccc5)cc43)o2)CC1 | -4% | 0.58 |
| CCC(C)(C)NC(=O)CN1CC2CC1C2NC(=O)COc1cccc(C)c1 (stereo not drawn) | -2% | 0.46 |
| COc1ccc(-c2csc(-n3nc(-c4ccc(C)cc4)cc3N)n2)cc1 | 1% | -0.11 |
| Cc1ccccc1O[C@H](C(=O)Nc1ccnn1C1CCN(C)CC1)C(C)C | -3% | 0.31 |
| CC(=O)NC1CCN(Cc2cc(C)nc3ccccc23)CC1 | -6% | 0.83 |
| COc1nc(CNC(=O)CCc2ccc(F)c(Cl)c2)nc(N2CCCC2)n1 | -14% | 1.77 |
| CC(C)[C@H](NC(=O)C1CC(=O)N(c2ccccc2)C1)C(=O)NCc1cccnc1 (stereo partly drawn) | -9% | 1.18 |
| O=C(O)c1ccc(C(=O)N(Cc2cccc(O)c2)CC2CC2)cn1 | -4% | 0.42 |
| O[C@H](COc1ccc(Cl)cc1CNCc1ccsc1)CN1CCCCCC1 | -10% | 1.36 |
| Cc1nc(CCNC(=O)C(F)(F)C2(O)CCC2)cs1 | -8% | 0.75 |
| Cc1cccc(NC(=O)c2c(NC(=O)c3cccs3)sc3c2CCCC3)c1 | -8% | 1.37 |
| COc1ccnc(CNC(=O)c2cc(C(C)C)oc2C)c1 | -3% | 0.53 |
| CN(Cc1ccc(-c2nc3c(c(=O)[nH]2)CCCC3)cc1)Cc1cc(C2CC2)[nH]n1 | -13% | 1.97 |
| CC(C)(O)CNC(=O)C(=O)Nc1ccc(Br)cc1F | -7% | 1.23 |
| Cc1nn(-c2ccccn2)c(C)c1[C@@H]1C=C[C@@H](NC(=O)C2CCCCC2)C1 | -11% | 1.69 |
| O=C(NCc1ccc(F)cc1)c1ccc2[nH]c3c(c2c1)CCCC3 | -11% | 1.29 |
| NC(=O)Cc1nc(C2(Cn3ccnc3)CC2)n(CC(F)(F)F)n1 | -16% | 1.59 |
| Cc1ccc(C)c(CC(=O)N2C[C@@H]3CC[C@H]2CN(S(C)(=O)=O)C3)c1 | -7% | 0.75 |
| CC(C)CCn1c(=O)n(Cc2cccnc2)c2cc(C(=O)O)ccc21 | -12% | 1.86 |
| Cc1ccccc1OC1(C(=O)O)CCN(Cc2cc(-c3ccccc3)no2)CC1 | -2% | 0.3 |

| Compound | % Inhibition | Z score |
| --- | --- | --- |
| COc1nc(NCCn2cnc(C)c2C)ncc1F | 5% | -0.59 |
| CCOCC(=O)NCCN1CCC(c2cccs2)CC1 | -12% | 1.75 |
| C/C(=C\c1ccccc1)C(=O)N1CCN(Cc2cnoc2C)CC1 | -8% | 1.42 |
| FC(F)Oc1ccccc1CN1CCO[C@H]2CCCC[C@@H]21 | -2% | 0.37 |
| Cc1sc2ccccc2c1CN1CCC[C@H](CCC(N)=O)C1 | -3% | 0.64 |
| CC(C)CC[C@H](C)NC(=O)Nc1ccncc1 | 35% | -3.49 |
| Cc1nc(CN(C)c2ncccc2C(=O)N2CCc3ccccc32)cs1 | -5% | 0.93 |
| Cc1nc[nH]c1-c1nccn1CC(F)(F)F | -16% | 2.08 |
| CN1CCc2cc3c(c(OCC(=O)NCc4ccccn4)c2C1=O)OCO3 | -6% | 0.83 |
| C[C@@H](C(=O)Nc1ncccn1)N(C)CCc1ccc(Cl)cc1 | 3% | -0.54 |
| COc1ccc(CC(=O)N2CCN(c3ccc(-c4ccc(C)cc4C)nn3)CC2)cc1OC | 1% | -0.13 |
| Cc1ccc(F)c(OCC(=O)N2CC3(CCOC3)C2)c1 | -8% | 1.49 |
| NC(=O)[C@@H]1C[C@@H](O)CN1C1CCN(Cc2cccc(Cl)c2)CC1 | -8% | 1.3 |
| C=CC[C@@H]1N(C(=O)Nc2ccnnc2C)CCCC1(C)C | -6% | 0.64 |
| CC(C)(C)OC(=O)N1CC(c2ccccc2)CC1C(=O)O (stereo not drawn) | 11% | -1.69 |
| CCC[C@H](NC(=O)Nc1ccc(Cl)c(C)c1)c1nccn1C | -6% | 0.94 |
| CC(C)NC1CCN(CC(=O)N[C@H](c2ccc(F)cc2)C2CCCC2)CC1 | 1% | -0.14 |
| COc1ccc(CC2=NOC(C(=O)N3CCCCC3c3nccn3C)C2)cc1 (stereo not drawn) | -7% | 1.31 |
| CCN(C)S(=O)(=O)Nc1cc(C(=O)O)ccc1OC(F)(F)F | -7% | 0.85 |
| O=C(c1cncc(N2C[C@@H]3c4ccccc4OC[C@]3(CO)C2)n1)N1CCCC1 | -22% | 1.92 |
| Cc1ccn2c(NCc3cccnc3)nnc2c1 | -2% | 0.45 |
